# Data taken from the RNAGym collection of RNA variant scans (doi:10.7554/elife.90254).
# Read counts are not given, so values of variants with three or more changes are uncertain.
# B1: LINE1-mini (parent)
# chain: GGCAGAGCUCAACACAGCGUGGCAAAGUGGCUGUGGCUAGACUGCC
# Variants of: B1
# Assay: self-cleavage, relative activity (ratio to wild type); higher = more cleavage; in vitro, sequencing; the parent is a self-cleaving ribozyme
row,Variant,self-cleavage
1,C8G C10A A11G C13A A24U U28G C42U G44A C46U,0
2,C8G C13U A16G,0.07
3,C8G C13U A24G G27C G29C G36C,0.03
4,C8A G21U U38A,0.04
5,C8A G17U C31A G40U,0.39
6,C8G A14U C15U C37U C46A,0.03
7,C8G C13G G17A U32A C37A,0.03
8,C8A G27C A39U,0.2
9,C8A G40U A41G,0.22
10,C8A G27U U28A G40U C45A,0.33
11,C8A G17C G40U C42A G44U,0.07
12,C8A G30U A41U,0.37
13,C8G A16C G35A,0.04
14,C8G A16U G33U U43C,0.02
15,C8G A16C A25C U34A C37A,0.02
16,C8G A12U G36U A39C,0.1
17,C8A G21C A24C U28A,0.07
18,C8G A11U A12U A14U G27U U32A,0.01
19,C8A G19U U34A A39C,0.2
20,C8G A11C G21C G33A U34G,0.01
21,C8A G19C U20A C23U U34C,0
22,C8G C15U A25G,0.15
23,C8G C15G U34A,0.04
24,C8G A25G G27A C37A,0.1

row,Variant,self-cleavage
1,C8G A26U G40C C46A,0.01
2,C8G A11U G21U,0.01
3,C8G C10A G29A A41C,0.01
4,C8A U9G C15A C18A,0.05
5,C8A G27A C31U C42G,0.1
6,C8A G27C C45G,0.06
7,C8G A16G G29A C42U,0.07
8,C8A G22A G27C U32C C46G,0.06
9,C8A U28A A39C C42G U43G,0.05
10,C8A U20G G29A,0.11
11,C8G A24G U43C,0.01
12,C8A U9G U43A,0.09
13,C8A C31U G35A C45A,0.13
14,C8G A25U G29U,0.13
15,C8G A14U G21A,0.06
16,C8A U9A U43A C45A,0.17
17,C8G C10U G22C,0.03
18,C8G A16C G27A,0.03
19,C8A G40C C45U,0.07
20,C8G A24G G35A G36C,0.03
21,C8A G30U G44C,0.04
22,C8A G17U U28G G35U,0.07
23,C8G A26U U34G,0.02
24,C8G C13A A14G C18A G30C G35U,0.12

row,Variant,self-cleavage
1,C8G C13U A24U A39U,0.07
2,C8A G21U C31G U34G,0.04
3,C8G C13U G19C C37G,0.08
4,C8G A14C G17C G22U G29A G44U,0.12
5,C8A U20A A26C U38A,0.06
6,C8G A12G G27U,0.01
7,C8A U32A C37A,0.12
8,C8A G36A U43C,0.05
9,C8G A26U G35A C46A,0.08
10,C8G A14C G33U C37A G40A,0.02
11,C8G A12U C13U G27C G35A A41U C46A,0.01
12,C8A U9A A11U U32C G35U C37A,0.02
13,C8A G36C U38A U43G C45U,0.27
14,C8G A12U C18A,0.03
15,C8A G40U G44C,0.19
16,C8A G30U C31A A41U,0.68
17,C8A U9G G33A U34G A41G C46U,0.02
18,C8A U38G A41U,0.22
19,C8G A12C G35A C37G G40A C46U,0.01
20,C8A G22C G30U C45A,0.2
21,C8A G17C C23A U34C,0.09
22,C8A G19A C23U,0.28
23,C8G C10G G27A C42U G44C,0
24,C8A U9A U32G,0.15

row,Variant,self-cleavage
1,C8G A26U C31U U43G C46A,0.05
2,C8A G22A C31G G36C,0.08
3,C8A G22A G44U,0.05
4,C8G C13A G27U A39U,0.1
5,C8A U28C G29C U34A,0.19
6,C8A G17A U38A U43A,0.17
7,C8A U9G G21A C45A,0.15
8,C8G A24G C37G,0.05
9,C8A G21C G27C,0.19
10,C8G A11G C15U G22A,0
11,C8G A14U U34A,0.07
12,C8A G19A C37A U43G C45U,0.38
13,C8G C10A G21U,0.02
14,C8A G19U A26G U38G,0
15,C8G A24C U28G G35C C45A,0
16,C8A U20G G29A U34C,0.13
17,C8G C13G A24U G29A,0.15
18,C8A G27U G35C,0.16
19,C8G A26U C37U U38A,0.07
20,C8A U9A G19A A25G U34A,0.15
21,C8G C10U G17C G21A A24G,0.04
22,C8A G19A G21A,0.91
23,C8A G22C A25U A26U G35U,0.04
24,C8A U9A G21A G44U,0.68

row,Variant,self-cleavage
1,C8A G19A A26G G29A G36C,0.26
2,C8A U9G U28A G33A G44U,0.03
3,C8G C10A A14G U20A,0.03
4,C8A G19C C46A,0.23
5,C8G C13U A26C G30A,0.06
6,C8A G36U G44U,0.28
7,C8A G36U G44A,0.24
8,C8G A12G C42A,0.02
9,C8G C10U U20G C31A,0.02
10,C8A C37U C42G C46A,0.03
11,C8A G19C C31G C37A,0.03
12,C8G A25C A41C,0.1
13,C8G A11C U32G,0.01
14,C8G A24U U43G,0.15
15,C8A U9G C13A,0.27
16,C8A G19A U32C U38A,0.06
17,C8A G29U U38C C42U G44A,0.44
18,C8G C10A A26C C42G U43C,0.06
19,C8G A12C G22C C37A G44U C45A,0.01
20,C8A G33A U38A C46A,0.23
21,C8A U9G A14U G29U C42A,0.23
22,C8G C13U C15U G35C,0.2
23,C8G C13A G21C,0.01
24,C8G C10U A11U,0.01

row,Variant,self-cleavage
1,C8A G40U C42A C45G,0.28
2,C8G C10U C15G G30A,0.01
3,C8A U32C G44U,0.12
4,C8G C10U C18G G19A,0.04
5,C8G A12G A16G U28G,0.03
6,C8A G22C C23G G40A C45U,0.06
7,C8A U9C U28G U32C U43A G44U,0.02
8,C8G A25G G35C,0.08
9,C8G C10U A11U G29U A41G,0.04
10,C8A G29U C37A,0.06
11,C8A G17A C23G G27C A41C C45A,0.05
12,C8A C31U G33A C37A C46A,0.08
13,C8A G19C C37A,0.04
14,C8A U9A A11G G22U G29U,0.01
15,C8G A12C A14C,0.03
16,C8A G27A G30U,0.1
17,C8G A12G A16U C37G,0.04
18,C8G C13U C42G,0.04
19,C8G A24G G30C,0.07
20,C8G C13G C18U,0.03
21,C8A G29U G33U,0.1
22,C8A G21U G29A G30A,1.45
23,C8A U34A A39G C45G,0.09
24,C8A U9C G44A,0.04

row,Variant,self-cleavage
1,C8G A12C C37U,0.01
2,C8A G19U A39G G44C,0.02
3,C8A G19C G44A,0.11
4,C8A G21U G22C C31G,0.09
5,C8A G17C G21U,0.16
6,C8A G21U G29U,0.08
7,C8G C10G A26C,0.03
8,C8A U9A C13G U32G,0.19
9,C8G C10U C13A G36A,0.08
10,C8G C13G G36A U43C,0
11,C8G C10G C15G A24C U43C,0
12,C8G C15A G30C G35A,0.34
13,C8G A14U G29U,0.02
14,C8G A24G G36U,0.11
15,C8A U20A U28A,0
16,C8G C10U A12G G30A G35U C37U A39G,0.01
17,C8A G44U C45A,0.17
18,C8G C10A C18A,0.05
19,C8A U20G G22A U28A U38C,0.05
20,C8G C10G C45A,0.02
21,C8G A12C C15U,0.03
22,C8A G29U G30U,0.37
23,C8G A11G A24C,0.03
